# Assay results reported in PubChem BioAssay AID1476 (National Center for Advancing Translational Sciences (NCATS), 2009).
# Hit rate of the full screen: of about 200,000 compounds, about 4,500 (2.2%) were called active. This list was built around the results that the source calls inconclusive (neither active nor inactive); the mix of calls is not that of the screen. The call rests on the fitted dose curve; in most records, active means well fitted inhibition curve with a large enough effect; inconclusive means small, poorly fitted or top-dose-only effect, or effect the other way; inactive means flat fitted curve, though single readings scatter. Potencies of inconclusive entries are doubtful fits and often do not repeat.
# Biological target: Cruzipain (Trypanosoma cruzi) (UniProt P25779)
# Assay: qHTS Assay for Promiscuous and Specific Inhibitors of Cruzain (without detergent); further: nearly all actives have a fitted effect of over 40% in size;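 on max response, negative = inhibition: plate controls were enzyme without inhibitor for no effect and buffer without enzyme for full effect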
# Settings: purified cruzain, Z-FR-AMC fluorescence, no detergent
# Method in brief: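 Detergent-free condition (0.00005% Triton X-100) in acetate buffer pH 5.5 with DTT. 1.5 nM enzyme and compound were pre-mixed 15 min, then 2 uM Z-FR-AMC substrate added; reaction progress from fluorescence change between first and third reads (60 s).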
# Potency means the concentration at half of the fitted maximal effect; tags describe the fitted curve by direction and shape.
# Chain of UniProt P25779 (P25779 whole entry, looked up): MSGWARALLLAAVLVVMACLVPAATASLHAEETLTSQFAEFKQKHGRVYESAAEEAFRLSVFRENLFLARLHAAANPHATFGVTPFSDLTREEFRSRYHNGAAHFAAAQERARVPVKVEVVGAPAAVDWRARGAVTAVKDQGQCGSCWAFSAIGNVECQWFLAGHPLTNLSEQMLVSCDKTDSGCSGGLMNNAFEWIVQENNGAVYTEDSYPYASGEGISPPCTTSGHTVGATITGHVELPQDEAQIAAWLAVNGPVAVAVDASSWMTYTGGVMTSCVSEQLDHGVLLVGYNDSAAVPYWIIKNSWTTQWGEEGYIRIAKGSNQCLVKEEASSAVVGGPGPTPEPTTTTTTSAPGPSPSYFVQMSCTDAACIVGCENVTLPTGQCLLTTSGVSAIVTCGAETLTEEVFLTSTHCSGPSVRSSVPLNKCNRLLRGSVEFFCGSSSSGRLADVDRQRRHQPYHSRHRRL
SMILES,Potency,"max response, negative = inhibition"
Cc1ccc(N2CCN(S(=O)(=O)c3ccc(Cl)c4ccccc34)CC2)c(C)c1,active: 10 µM,
CCOC(=O)N1CCN(C(=O)CN(c2cccc(C(F)(F)F)c2)S(=O)(=O)c2ccccc2)CC1,"inconclusive: 25.1 µM [activator, partial curve]",
O=C1CCCc2cc(S(=O)(=O)NCC3CCC(C(=O)NCc4ccc(F)cc4)CC3)ccc2N1 (configuration not stated),,inactive: -18.6%
Cc1cccc(C(=O)NNC(=O)c2cc3cc4ccccc4nc3s2)c1,active: 20 µM,
CCOC(=O)C1CCN(C(=O)Nc2ccc3c(c2)nc(C)n3C)CC1,,inactive: -2.72%
CCc1ccccc1NC(=O)c1ccc2c(c1)nnn2C1CCCC1,,inactive: -27.1%
Cc1ccc(CNC(=O)Cc2ccc(NC(=O)N3CCSc4ncccc43)cc2)cc1,,inactive: -10.1%
CC(C)(C)NC(=O)N1CCC(C(=O)O)CC1,,inactive: 7.84%
C=CCn1c(SCC(=O)Nc2c(C)n(C)n(-c3ccccc3)c2=O)nc2sc(C)c(-c3ccccc3)c2c1=O,"inconclusive: 31.6 µM [activator, single point]",
Cc1nc2sc(C(c3ccccc3)N3CCN(c4ccccc4F)CC3)c(O)n2n1 (configuration not stated),"inconclusive: 31.6 µM [activator, single point]",
CSc1nc2sc3c(c2c(=O)n1Cc1ccccc1)CCC(C(C)(C)C)C3 (configuration not stated),,inactive: -5.43%
Cc1ccc(Sc2c([N+](=O)[O-])ncn2C)cc1,,inactive: -0.2%
Cc1ccc(C(=O)Nc2ccc3nc(SCC(=O)N4CCCc5ccccc54)sc3c2)cc1,"inconclusive: 39.8 µM [inhibitor, single point]",
CN(C)c1ccc(/C=C2\NC(=S)N(Cc3ccccc3)C2=O)cc1,"inconclusive: 39.8 µM [inhibitor, single point]",
C=CCn1c(SCC(=O)NCC2CCCO2)nc2scc(-c3ccco3)c2c1=O (configuration not stated),"inconclusive: 31.6 µM [activator, single point]",
CCOc1cc(NC(=S)Nc2cccc(OC)c2)c(OCC)cc1NC(=O)c1ccc(C)cc1,"inconclusive: 39.8 µM [inhibitor, single point]",
COc1ccc(/C=N/NC(=O)c2ccc(N(C)S(=O)(=O)c3ccccc3)cc2)cc1OC,"inconclusive: 39.8 µM [activator, single point]",
Cc1c(C(=O)NCc2cccc(Cl)c2)sc2nc3n(c(=O)c12)CCC3,,inactive: 4.79%
Cc1csc(NC(=O)c2cc(-c3ccccc3)nc3ccccc23)n1,"inconclusive: 39.8 µM [inhibitor, single point]",
Cc1c(-c2ccccc2)oc2c(C(=O)N3CCN(c4ccc([N+](=O)[O-])cc4)CC3)cccc2c1=O,"inconclusive: 39.8 µM [inhibitor, single point]",
COC(=O)c1ccccc1NC(=O)c1c(C)oc2ncn(C)c(=O)c12,,inactive: -3.72%

SMILES,Potency,"max response, negative = inhibition"
COc1ccc(-c2nnc(SCC(=O)c3[nH]c(C)c(C(C)=O)c3C)o2)cc1,"inconclusive: 25.1 µM [activator, partial curve]",
O=C(Nc1cccc(-c2nnn(CC(=O)N3CCc4ccccc4C3)n2)c1)C1CCC1,"inconclusive: 31.6 µM [inhibitor, single point]",
COc1cc(NC(=O)CN2CCN(c3ccccc3O)CC2)c(C)cc1[N+](=O)[O-],"inconclusive: 31.6 µM [activator, single point]",
C=N[C@H](C(=O)N[C@@H]1C(=O)N2[C@@H]1SC(C)(C)[C@@H]2C(=O)O)c1ccccc1,,inactive: 4.92%
CC1CCC(C(=O)NC(C(=O)OCC(=O)c2ccccc2)C(C)C)CC1 (configuration not stated),"inconclusive: 39.8 µM [inhibitor, single point]",
O=C1/C(=C/N(C(=O)c2ccco2)c2ccc(Cl)cc2)Sc2ccccc21,"inconclusive: 31.6 µM [inhibitor, single point]",
CCC(=O)N1CCc2cc(Br)cc(S(=O)(=O)N3CCCC(C(=O)Nc4ccc(C(C)C)cc4)C3)c21 (configuration not stated),,inactive: 12.8%
CCOc1cc(C(=O)OCc2cc(=O)n3nc(CC)sc3n2)cc(OCC)c1OCC,,inactive: 5.83%
Cc1ccccc1C(=O)Nc1sc2c(c1C(=O)NCc1ccco1)CCC(C(C)(C)C)C2 (configuration not stated),"inconclusive: 2 µM [activator, full curve]",
COc1cccc(Cn2cnc3c(NS(=O)(=O)c4cc(Cl)ccc4Cl)c(C)c(C)cc32)c1,"inconclusive: 7.94 µM [inhibitor, partial curve, poor fit]",
COc1ccccc1CNc1nc(-c2ccco2)nn1S(=O)(=O)c1ccc2ccccc2c1,"inconclusive: 31.6 µM [inhibitor, single point]",
CCC1=Nc2cc(C(=O)NCCCOC)ccc2Sc2ccc(Br)cc21,"inconclusive: 39.8 µM [activator, single point]",
Cc1cccc(-c2noc(-c3ccccc3OCC(=O)Nc3ccc([N+](=O)[O-])cc3)n2)c1,,inactive: -2.48%
CCOC(=O)N1CCC(NC(=O)c2ccc(OC)c(CN3CC(=O)N4CCCC4C3=O)c2)CC1 (configuration not stated),"inconclusive: 25.1 µM [activator, single point]",
CN(C)c1ccc(C(CNC(=O)c2ccccc2)N2CCc3ccccc32)cc1 (configuration not stated),"inconclusive: 31.6 µM [inhibitor, single point]",
CCc1ccc(CN(Cc2ccco2)c2cnc(S(C)(=O)=O)nc2C(=O)Nc2cccc(C)c2)cc1,"inconclusive: 25.1 µM [inhibitor, single point]",
O=C1CC(SC2=NCCS2)C(=O)N1c1ccc(Br)cc1 (configuration not stated),"inconclusive: 31.6 µM [inhibitor, single point]",
COC(=O)C1=CN(CC2CCCO2)C=C(C(=O)OC)C1c1cc(OC)c(OC)c(OC)c1 (configuration not stated),"inconclusive: 25.1 µM [activator, single point]",
CCOc1cc2sc(N3CCC(C(=O)Nc4ccc(C)cc4C)CC3)nc2cc1Br,,inactive: 2.72%
O=C(N[C@@H](Cc1ccccc1)C(=O)CCl)OCc1ccccc1,active: 0.316 µM,
C/C(=N\Nc1ccc([N+](=O)[O-])cc1[N+](=O)[O-])c1ccc(-n2nncc2C(C)(C)C)cc1,"inconclusive: 31.6 µM [inhibitor, single point]",

SMILES,Potency,"max response, negative = inhibition"
CC(=O)Oc1ccc(C(=O)[C@H]2[C@H]3C(=O)N(c4ccc(C)cc4)C(=O)[C@H]3[C@@H]3C=CC=NN32)cc1,"inconclusive: 39.8 µM [activator, single point]",
CCOC(=O)CN(C(=O)CSc1nnc(-c2ccc(OC)c(OC)c2)o1)c1ccccc1,"inconclusive: 31.6 µM [activator, single point]",
O=C(Nc1cccc(C(F)(F)F)c1)Nc1ccc(N2CCCC2)c(S(=O)(=O)Nc2ccccc2Cl)c1,active: 6.31 µM,
CCN(C(=O)CSc1cc(-c2ccccc2)c2ccc(OC)cc2n1)C1CCS(=O)(=O)C1 (configuration not stated),"inconclusive: 25.1 µM [activator, single point]",
CCc1c(C)nc2cc(-c3ccc(OC)c(OC)c3)nn2c1N1CCCC1,"inconclusive: 39.8 µM [activator, single point]",
CCn1c(SCC(=O)Nc2nc3ccccc3s2)nnc1-c1ccc(Br)cc1,"inconclusive: 39.8 µM [inhibitor, single point]",
CCCCNC(=O)c1cnn2c(C)c(Cc3c(F)cccc3Cl)c(C)nc12,,inactive: 11.1%
COc1cc2cc3c4cc(OC)c(OC)cc4cc[n+]3c(C)c2cc1OC,"inconclusive: 20 µM [activator, partial curve]",
COc1cccc(NC(=O)c2cc3c(=O)n(C)c4ccccc4c3n2C)c1,"inconclusive: 7.94 µM [activator, partial curve]",
COc1ccc(C(C(=O)NC2CCCCC2)N(C(=O)Cc2c[nH]c3ccccc23)c2ccc(NC(C)=O)cc2)cc1OC (configuration not stated),"inconclusive: 39.8 µM [activator, single point]",
O=C(COC(=O)c1c2c(nc3ccccc13)CCCC2)Nc1ccc2c(c1)OCO2,active: 25.1 µM,
O=C(NCCSc1c(-c2ccccc2)[nH]c2ccccc12)c1ccc(S(=O)(=O)N2CCOCC2)cc1,"inconclusive: 39.8 µM [inhibitor, single point]",
COc1cc(/C=C2\SC(=O)N(CCNC(=O)c3cnc(C)cn3)C2=O)cc(OC)c1OC,"inconclusive: 39.8 µM [activator, single point]",
CCc1cc[n+](/C(C(=S)Nc2cccc(C)c2)=C(/[O-])c2ccc(C)c([N+](=O)[O-])c2)cc1,,inactive: -21.1%
COc1ccccc1C(=O)Nc1nnc(S(=O)(=O)N(C)c2ccc(Cl)cc2)s1,"inconclusive: 3.98 µM [activator, single point]",
CCOCC(=O)Nc1c(C(=O)Nc2ccccc2OC)oc2ccccc12,"inconclusive: 31.6 µM [inhibitor, single point]",
CCOC(=O)c1c(C)n(-c2ccccc2)c2ccc(OC(=O)c3ccccc3NC(=O)C(C)(C)C)cc12,,inactive: -12.2%
Cc1ccc(NC(=O)c2c(C)nc3sc(C(=O)Nc4ccc(F)cc4)c(N)c3c2-c2ccccc2Cl)c(C)c1,"inconclusive: 39.8 µM [inhibitor, single point]",
CCOC(=O)N1CCC(NC(=O)C2CCCN(S(=O)(=O)c3cccc4nsnc34)C2)CC1 (configuration not stated),"inconclusive: 39.8 µM [activator, single point]",
COc1cccc(OC)c1C(=O)Nc1ccc(S(=O)(=O)Nc2nccc(C)n2)cc1,,inactive: -6.21%
